# Source: PMC13083723 (Patterns, 2026)
# Hit rate of the full screen: of about 5,400 compounds, about 190 (3.5%) showed an effect of 50% or more. Some of the results follow.
# System: Vero-E6
# Test: primary screen, phospholipidosis by LipidTOX staining; higher = more effect of the substance
# Conditions: 10 µM
# Method in brief: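 Drug-induced phospholipidosis detected with HCS LipidTOX Red reagent in Vero-E6 cells. Compounds tested at 10 μM, with amiodarone (10 μM) as positive control and DMSO (0.1 v/v %) as vehicle.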
row,Compound,result_ITMP [%]
1,Nc1ccc(C(=O)[O-])c(O)c1,-0.28
2,CON(C)C(=O)[C@H](O)[C@H](Cc1ccccc1)NC(=O)c1cc2cc(Cl)ccc2[nH]1,-0.75
3,Clc1ccc(COC(Cn2ccnc2)c2ccc(Cl)cc2Cl)cc1 (stereo not drawn),4.76
4,CCC(=O)NC[C@@H]1C[C@H]1c1cccc2c1CCO2,-5.55
5,C[C@]12CC[C@@H]3c4ccc(O)cc4CC[C@H]3[C@@H]1[C@@H](O)[C@@H](O)[C@@H]2O,-3.61
6,CO/N=C1\CN(c2nc3c(cc2F)c(=O)c(C(=O)O)cn3C2CC2)CC1CN (stereo not drawn),7.81
7,NC(=O)NO,-3.87
8,Clc1ccccc1C(c1ccccc1)(c1ccccc1)n1ccnc1,1.2
9,CC(C)(C)c1ccc(S(=O)(=O)NCc2ccc(C(=O)Nc3cccnc3)cc2)cc1,0.31
10,C=CC[N@@+]12CC[C@@]34c5ccccc5N5/C=C6/[C@H]7C[C@H]8[C@@]9(CC[N@@+]8(CC=C)C/C7=C/CO)c7ccccc7N(/C=C(/[C@@H](C[C@@H]31)/C(=C\CO)C2)[C@H]54)[C@@H]69,-6.64
11,Cc1cc(CC(C)CC(C)(C)C)n(O)c(=O)c1 (stereo not drawn),-2.28
12,CN1CCC[C@H]1c1cccnc1,-9.85
13,CCCC(C(=O)OCCN(CC)CC)(c1ccccc1)c1ccccc1,14.9
14,CCOc1nc2c(N)ncnc2n1CC,-2.12
15,O=C(NN1C(=O)[C@@H]2[C@@H]3C=C[C@@H]([C@H]4C[C@@H]34)[C@@H]2C1=O)c1ccc(C(F)(F)F)cc1,-0.89
16,COc1ccc(-n2nc(CCC(=O)N(C)O)cc2-c2ccc(Cl)cc2)cc1,4.73
17,CCC(O)(CC(N)=O)c1ccccc1 (stereo not drawn),1.38
18,NC(Cc1ccc(O)cc1)C(=O)O (racemic),-3.28
19,O=C(O)c1cc(O)c(O)c(O)c1,-3.35
20,CCN(CC)C(=O)N1CCN(C)CC1,-3.95
21,CCCCC#Cc1nc(NC)c2ncn([C@@H]3O[C@H](CO)[C@@H](O)[C@H]3O)c2n1,-6.97

row,Compound,result_ITMP [%]
1,Cc1cc(NC(=O)Nc2ccc(F)c(F)c2)n(-c2ccccc2)n1,-2.49
2,CCn1c(-c2nonc2N)nc2cnc(Oc3cccc(NC(=O)c4ccc(OCCN5CCOCC5)cc4)c3)cc21,26.7
3,Cc1cccc(NC(=O)c2ccc(C(F)(F)F)cc2C(=O)O)n1,-1.47
4,CC(C)(C)C(O)/C=C/c1ccc2c(c1)OCO2 (stereo not drawn),-1.46
5,CCc1cc(/C(C)=N/OCc2ccc(C3CCCCC3)c(C(F)(F)F)c2)ccc1CN1CC(C(=O)O)C1,-6.28
6,CCN(CCCc1ccccc1)CCCc1ccccc1,58.9
7,Cc1cccc(Oc2cnc(=O)[nH]c2)c1,-0.63
8,C[C@@H](C1=C(CCN(C)C)Cc2ccccc21)c1ccccn1,12
9,COc1cc2c(cc1OC)CN(CCc1ccc(NC(=O)c3cccc4c(=O)c5cccc(OC)c5[nH]c34)cc1)CC2,-2.1
10,CC(CCc1ccc(O)cc1)NCC(O)c1ccc(O)cc1 (stereo not drawn),1.5
11,CC(=O)[C@H]1CC[C@H]2[C@@H]3CC=C4C[C@@H](OC(=O)CCC(=O)O)CC[C@]4(C)[C@H]3CC[C@]12C,1.56
12,CC(O)C(CO)NC(=O)C1CSSCC(NC(=O)C(N)Cc2ccccc2)C(=O)NC(Cc2ccccc2)C(=O)NC(Cc2c[nH]c3ccccc23)C(=O)NC(CCCCN)C(=O)NC(C(C)O)C(=O)N1 (stereo not drawn),-2.71
13,Cc1[nH]c(/C=C2\C(=O)Nc3ccc(S(=O)(=O)Cc4c(Cl)cccc4Cl)cc32)c(C)c1C(=O)N1CCC[C@@H]1CN1CCCC1,-0.4
14,COc1ccc(CNCc2cccc3ccccc23)cc1,11.4
15,NC(=O)[C@@H](CCC(F)(F)F)N(Cc1ccc(-c2ncon2)cc1F)S(=O)(=O)c1ccc(Cl)cc1,2.75
16,C=C(C)CN1CC[C@]23c4c5ccc(O)c4O[C@H]2c2[nH]c4ccccc4c2C[C@@]3(O)C1C5,32.1
17,CCCCCCCCCC(=O)O[C@H]1CC[C@H]2[C@@H]3CCC4=CC(=O)CC[C@@H]4[C@H]3CC[C@]12C,-0.22
18,CC1=C(C(=O)O)N2C(=O)[C@@H](NC(=O)[C@H](N)c3ccc(O)cc3)[C@H]2SC1,-1.06
19,N#CC(=C(/N)Sc1ccccc1N)/C(C#N)=C(\N)Sc1ccccc1N,-4.66
20,C[C@@]1(O)[C@H](O)[C@@H](CO)O[C@H]1n1cnc2c(NC3CCCC3)nc(Cl)nc21,-1.91
21,CC(C)c1onc(-c2c(Cl)cccc2Cl)c1COc1ccc(/C=C/c2cccc(C(=O)O)c2)c(Cl)c1,-2.39

row,Compound,result_ITMP [%]
1,Nc1nc(Nc2ccc(S(N)(=O)=O)cc2)nn1C(=O)c1c(F)cccc1F,20.5
2,O=C1C2CC=CCC2C(=O)N1SC(Cl)(Cl)Cl (stereo not drawn),1.48
3,CO[C@@H](C)Cn1c(=O)n(C)c2cnc3ccc(-c4cncc(C(C)(C)O)c4)cc3c21,-0.17
4,CC(C)OC(=O)[C@H](C)N[P@](=O)(CO[C@H](C)Cn1cnc2c(N)ncnc21)Oc1ccccc1,6.26
5,c1ccc(-c2cnn3cc(-c4ccc(OCCN5CCOCC5)cc4)cnc23)cc1,-1.94
6,C=CCN1CCCC1CNC(=O)c1cc2nn[nH]c2cc1OC (stereo not drawn),1.44
7,CC(=O)O[C@@]12CO[C@@H]1C[C@H](O)[C@@]1(C)C(=O)[C@H](O)C3=C(C)[C@@H](O)C[C@@](O)([C@@H](OC(=O)c4ccccc4)[C@H]21)C3(C)C,-5.35
8,O=C(NCNC(=O)NC1C(=O)NC(=O)N1CO)NC1C(=O)NC(=O)N1CO (stereo not drawn),-4.37
9,CCCCCCOc1nsnc1C1=CCCN(C)C1,17.9
10,O=[N+]([O-])c1ncc[nH]1,-0.75
11,Cc1csc(NC(=O)CSc2ccc(-c3ccccc3)nn2)n1,-2.29
12,COc1ccc(S(=O)(=O)Nc2cc(Cl)cc(Cl)c2OC)cc1N1CCNCC1,14.4
13,c1ccc2c(-c3cnn4cc(-c5ccc(N6CCNCC6)cc5)cnc34)ccnc2c1,-16.6
14,CC(C)(Oc1ccc(C2CC2(Cl)Cl)cc1)C(=O)O (stereo not drawn),-0.88
15,CN(CCOc1ccc(-c2ccc3c(c2)OCO3)cc1C(C)(C)C)CC(=O)O,3.89
16,O=C(O)CCc1nc2ccccc2[nH]1,-0.69
17,C[C@@H]1CC2C3C[C@H](F)C4=CC(=O)C=C[C@]4(C)[C@@]3(F)[C@@H](O)C[C@]2(C)[C@@]1(O)C(=O)COC(=O)C(C)(C)C (stereo partly drawn),-3.06
18,CCC(C)(CN(C)C)OC(=O)c1ccccc1 (stereo not drawn),-1.47
19,NCc1c[nH]c(=S)n1[C@H]1CCc2c(F)cc(F)cc2C1,4.75
20,CCCc1nc(C)c2c(=O)[nH]c(-c3cc(S(=O)(=O)N4CCN(CC)CC4)ccc3OCC)nn12,10.7
21,C=C(NC(=O)C(=C)NC(=O)c1csc(C2=N[C@@H]3c4csc(n4)[C@H]4NC(=O)c5csc(n5)[C@H]([C@](C)(O)[C@@H](C)O)NC(=O)[C@H]5CSC(=N5)/C(=C/C)NC(=O)[C@H]([C@@H](C)O)NC(=O)c5csc(n5)[C@]3(CC2)NC(=O)[C@H](C)NC(=O)C(=C)NC(=O)[C@H](C)NC(=O)[C@H]([C@@H](C)CC)N[C@@H]2C=Cc3c([C@H](C)O)cc(nc3[C@H]2O)C(=O)O[C@@H]4C)n1)C(N)=O,-1.79

row,Compound,result_ITMP [%]
1,O=C(/C=C/c1ccccc1)NC(NC(=S)Nc1ccc(Cl)cc1)C(Cl)(Cl)Cl (stereo not drawn),-0.56
2,Cn1c(=O)c2c(ncn2CC(O)CO)n(C)c1=O (stereo not drawn),-0.79
3,NC[C@H]1O[C@H](O[C@H]2[C@H](O[C@@H]3O[C@H](CO)[C@@H](O)[C@H]3O)[C@@H](O)[C@H](N)C[C@@H]2N)[C@H](N)[C@@H](O)[C@@H]1O,-1.8
4,OCc1ccc(-c2nn(Cc3ccccc3)c3ccccc23)o1,-1.24
5,NCCC(=O)N[C@@H](Cc1cnc[nH]1)C(=O)O,-4.18
6,NC(=O)c1cccnc1,-7.2
7,O=S(=O)(NC1CCNCC1)c1cc(S(=O)(=O)c2ccccc2)ccc1C(F)(F)F,1.7
8,CC(C)C[C@H](N)C(=O)O,7.87
9,Nc1nccs1,-6.21
10,O=C1[C@@H]2[C@H]3CC[C@H](C3)[C@@H]2C(=O)N1CCCCN1CCN(c2ncccn2)CC1,-0.39
11,C[C@H](CCC(=O)NCCS(=O)(=O)O)[C@H]1CC[C@H]2[C@@H]3[C@@H](O)C[C@@H]4C[C@H](O)CC[C@]4(C)[C@H]3CC[C@]12C,3.34
12,O=C(NCc1ccc(Oc2ccccc2)cc1)c1nc(-c2cc(Br)c(O)c(Br)c2)no1,-11
13,CCCCCCCCCCCCCCCC[N+](C)(C)C,3.37
14,CS(=O)c1ccc(-c2nc(-c3ccc(F)cc3)c(-c3ccncc3)[nH]2)cc1 (stereo not drawn),-1.65
15,Cc1c(Cn2c(C)nc3c(C(=O)O)cc(N4CCOCC4)cc32)cccc1C(F)(F)F,4.29
16,Cc1ncc(-c2csc(NC(=N)N)n2)[nH]1,-2.01
17,CC(=O)N(O)C/C=C/c1cccc(Oc2ccccc2)c1,-9.75
18,CCOc1ccccc1O[C@@H](c1ccccc1)[C@@H]1CNCCO1.CCOc1ccccc1O[C@H](c1ccccc1)[C@H]1CNCCO1,11
19,COc1cnc(-n2cnc(C)n2)c2[nH]cc(C(=O)C(=O)N3CCN(C(=O)c4ccccc4)CC3)c12,-1
20,CC(C)N(CCC(=O)c1ccc2ccccc2c1)Cc1ccccc1,0.88
21,CN1C2CCC1CC(OC(c1ccc(F)cc1)c1ccc(F)cc1)C2 (stereo not drawn),61.5
